Results on 81 molecules are retold here after PubChem BioAssay AID1645887 (National Center for Advancing Translational Sciences (NCATS), 2021).

“And” between values parts separate entries of the source, which are not always exact repeats. Equal entries are not always repeated. Out of some 16,000 compounds screened, about 40 (0.2%) were called active. Inconclusive results (about 1%) are left out. The call rests on the fitted dose curve; in most records, active means well fitted activation curve with a large enough effect; inconclusive means small, poorly fitted or top-dose-only effect, or another doubt; inactive means no such curve, though single readings can be large or run the other way. The list shows a part of the results.
On the % scale 0 is the no-effect control and ±100 the full control effect.

The target of this assay is Rap guanine nucleotide exchange factor 4 (Homo sapiens) (UniProt Q8WZA2). Kind of assay: Validation qHTS for agonist of cAMP-regulated guanine nucleotide exchange factor 4 (EPAC2).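 Further: exchange makes BODIPY-GDP fluorescence drop when released from Rap1B; series mostly up to about 150 µM.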 Conditions: EPAC2 Rap1B BODIPY-GDP exchange, fluorescence; activation: active compounds read high. A digest of the protocol: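 Signal normalized against 6.5 mM cAMP as agonist control. Mix of EPAC2 (100 nM), RAP1B-BODIPY-GDP (250 nM) and GDP (50 uM) was read kinetically at 480/540 nm, every 5 min over 30 min, after 5 min room-temperature incubation with compound.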
Chain of UniProt Q8WZA2 (Q8WZA2 whole entry, looked up): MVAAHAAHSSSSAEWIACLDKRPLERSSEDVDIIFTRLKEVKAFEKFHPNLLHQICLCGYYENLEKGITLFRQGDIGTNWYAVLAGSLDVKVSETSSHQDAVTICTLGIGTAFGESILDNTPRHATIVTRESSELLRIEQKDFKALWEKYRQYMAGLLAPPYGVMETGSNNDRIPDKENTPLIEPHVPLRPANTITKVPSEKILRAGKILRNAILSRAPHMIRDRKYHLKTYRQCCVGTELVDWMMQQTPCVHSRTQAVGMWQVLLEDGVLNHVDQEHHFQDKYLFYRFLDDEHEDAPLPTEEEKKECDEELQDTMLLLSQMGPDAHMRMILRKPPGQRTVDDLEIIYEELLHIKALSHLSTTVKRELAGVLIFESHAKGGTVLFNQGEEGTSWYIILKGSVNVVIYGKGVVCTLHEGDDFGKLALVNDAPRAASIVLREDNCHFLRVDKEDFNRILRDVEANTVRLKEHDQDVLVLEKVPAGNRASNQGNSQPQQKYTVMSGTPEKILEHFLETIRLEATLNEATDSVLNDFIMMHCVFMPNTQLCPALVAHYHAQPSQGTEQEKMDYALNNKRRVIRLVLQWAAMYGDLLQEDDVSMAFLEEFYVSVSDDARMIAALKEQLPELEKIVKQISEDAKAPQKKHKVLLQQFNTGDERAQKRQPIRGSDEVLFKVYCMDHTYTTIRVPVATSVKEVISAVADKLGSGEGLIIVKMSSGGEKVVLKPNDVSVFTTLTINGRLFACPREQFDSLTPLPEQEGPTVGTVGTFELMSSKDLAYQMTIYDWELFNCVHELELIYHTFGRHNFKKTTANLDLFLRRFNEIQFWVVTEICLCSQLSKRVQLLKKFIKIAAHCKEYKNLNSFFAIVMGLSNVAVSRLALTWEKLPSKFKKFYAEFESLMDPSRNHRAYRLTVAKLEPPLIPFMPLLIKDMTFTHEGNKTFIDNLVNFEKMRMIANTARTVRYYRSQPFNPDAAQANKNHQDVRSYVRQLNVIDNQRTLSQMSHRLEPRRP
Turning to `CN1C(=O)C[C@@H](C(=O)N[C@@H](Cc2cnc[nH]2)C(=O)N2CCC[C@H]2C(N)=O)NC1=O`, the activation is inactive: -1.11%. For `Cc1cnc(CNc2ncnc3ccc(-c4ccoc4)cc23)cn1`, the activation is inactive: -6.69%. To `O=c1[nH]c2cc([N+](=O)[O-])c([N+](=O)[O-])cc2[nH]c1=O` belongs inactive: -4.19% and inactive: -13.7% and inactive: -4.61%. To `Cc1c[nH]c2ccccc12` belongs inactive: -13.5%; to `N#CCCn1c(=O)c(-c2ccc(Cl)cc2)nc2cnc(N3CCNCC3)nc21`, inactive: 7.04%.

As to `CCCOC(=O)C1NC(=O)N2C(C(=O)OCCC)C(C)(C)S[C@H]12` (stereo partly specified), the activation is inactive: -14.2%. With `CC(=O)/C(C)=N\O`, the activation was inactive: 4.61%. Next, `O=c1cc(-c2ccc(O)cc2)oc2ccc(O)cc12`: inactive: -12.4%; `O=C(c1ccccc1)C(O)c1ccccc1` (stereo unspecified): inactive: 8.5%; `C=CCNC(N)=S`: inactive: -12.2%. Turning to `COC(=O)[C@@H]1CCCN1Cc1ccc2c(c1)CN(Cc1ccccc1F)CCO2`, the activation is inactive: -1.07%. Next, `CN(C)CCOC(C)(c1ccccc1)c1ccccn1` (stereo unspecified): inactive: -21.1% and inactive: 6.34% and inactive: -9.81%; `CC(=O)OC1CC2C(C)(C)C(O)CC(O)[C@@]2(C)C2CC[C@@]3(C)C(=CC(=O)OC3c3ccoc3)[C@]12C` (stereo partly specified): inactive: -15.4%; `COc1cccc(-c2nc3cc4c(cc3cc2CN(C(=O)c2csc(C)n2)C2CC2)CCC4)c1OC`: inactive: -1.9%. In the case of `Cn1ccc(O)c(C#N)c1=O`, the activation is inactive: 5.96%. To `Cn1c(=O)c(CCc2ccccc2)nc2cncnc21` belongs inactive: -3.67%; to `CCCCCCCCCCCCCCC[C@H](O)[C@H](N)CO`, inactive: -46.1%.

For the molecule `C[N+](C)(C)CCO`, the activation is inactive: 6.78% and inactive: -21.1% and inactive: 1.78%. Next, `COC(=O)/C=C/c1cc(O)ccc1O`: inactive: -3.84%; `COc1ccc(-c2cc(=O)c3cc(OC)ccc3o2)cc1`: inactive: -8.25%; `COc1ccc(-c2oc3c(CC=C(C)C)c(O[C@H]4OC(CO)C(O)C(O)C4O)cc(O)c3c(=O)c2O[C@@H]2OC(C)C(O)C(O)C2O)cc1` (stereo partly specified): inactive: -14.7%. For `N[C@@](C(=O)O)(c1ccc(P(=O)(O)O)cc1)C1CC1`, the activation is inactive: -4.69%.

On to `C=CC(C1=CC(=O)C(OC)=CC1=O)c1ccc(OC)cc1` (stereo unspecified), for which the activation was inactive: -0.548%. For `O=C(c1c(O)c2ccc(Cl)cc2[nH]c1=O)C1CC1`, the activation was inactive: -27.3% and inactive: -6.46%. Next, `CC(C)(C#N)c1cc(Cn2cncn2)cc(C(C)(C)C#N)c1`: inactive: 4.51%; `CC(C)Cn1cnc2c1c(=O)n(C)c(=O)n2C`: inactive: -4.85%. Next, `COc1ccc(-c2nc3cnc(Oc4cccc(Cl)c4)nc3n(C[C@H]3CCCO3)c2=O)cc1`: inactive: -21.3%; `CO[C@H]1C[C@H](O[C@H]2[C@H](C)[C@@H](O[C@@H]3O[C@H](C)C[C@H](N(C)C)[C@H]3O)[C@@H](C)C[C@]3(CO3)C(=O)[C@H](C)[C@@H](O)[C@@H](C)[C@@H](C)OC(=O)[C@@H]2C)O[C@@H](C)[C@@H]1O`: inactive: 1.37%.

Regarding `COc1ccc(-c2nc3cnc(OC)nc3n(Cc3ccc(F)cc3)c2=O)cc1`, the activation was inactive: 0.142%. Take `Oc1c(I)cc(Cl)c2cccnc12`: the activation is inactive: -7.91% and inactive: 3.48%.

As for `O=C(Oc1ccccc1)N1CCC2(CC1)CN(c1ncccn1)C2`, the activation is inactive: -0.759%.

Take `C[C@@H](O)[C@H]1C(=O)N2C(C(=O)O)=C(S[C@@H]3CN[C@H](CNS(N)(=O)=O)C3)[C@H](C)[C@H]12`: the activation is inactive: 10.3%.

As to `COc1ncc2nc(-c3cc(F)cc(F)c3)c(=O)n(CCc3ccccc3)c2n1`, the activation was inactive: -15.6%. To `COC(=O)CC[C@H](N)C(=O)O` belongs inactive: -14%. Next, `CCCC(=O)Nc1c(I)cc(I)c(CC(CC)C(=O)O)c1I` (stereo unspecified): inactive: -9.2%; `CN(C)C(=O)c1ccc(-c2cc(NCc3cccnc3)ncn2)cc1`: inactive: -13.5%.

Take `COc1cc(=O)n2c(c1C(=O)NC(C)c1ccco1)CCN(C(=O)c1cccc(C)c1)CC2` (stereo unspecified): the activation was inactive: 4.08%.

Consider `CC(C)(CNC(=O)c1cnn(-c2nccc(-c3cccs3)n2)c1C1CC1)N1CCOCC1`, for which the activation is inactive: -20.7%. Next, `C[C@@H]1CCN(C(=O)[C@H](CCCN=C(N)N)NS(=O)(=O)c2cccc3c2NC[C@H](C)C3)[C@@H](C(=O)O)C1`: inactive: -21.7%.

`COc1cccc(C(=O)N(Cc2cc3ccc(C)cc3nc2N(C)C)C2CC2)c1OC`: the activation is inactive: -2.09%.

As to `O=C(c1cccc(F)c1)N1CCC2(CC1)CCN(C(c1ccccc1)c1ccccc1)CC2`, the activation is inactive: 6.52%. Turning to `O=C(C[N+]12CCCc3cccc(c31)CCC2)c1ccc2ccc3cccc4ccc1c2c34`, the activation is inactive: -23.2%. Next, `Cc1nc2cnc(OCc3ccccc3)nc2n(Cc2ccc(F)cc2)c1=O`: inactive: -5.75%; `N#Cc1cccc(-c2nc3cnc(N4CCOCC4)nc3n(Cc3ccc(F)cc3)c2=O)c1`: inactive: 1.03%. To `COc1ccc(CNc2nc(-c3ccc(C(=O)N(C)C)cc3)nc3ccccc23)c(OC)c1` belongs inactive: -10.5%; to `Cc1cc(=O)c(C(=O)N(C)CCc2ccccn2)c2n1-c1ccccc1SC(c1ccsc1)C2` (stereo unspecified), inactive: 3.09%; to `Cc1oc(-c2ccccc2NC(=O)C2CCCO2)nc1CNC(=O)c1cc(Cl)ccc1F` (stereo unspecified), inactive: -4.56%. Next, `Nc1ccn([C@H]2CC[C@@H](CO)O2)c(=O)n1`: inactive: -10.7% and inactive: -5.47% and inactive: -19.5%. Turning to `COC(=O)c1c(OCc2cccnc2)cc(=O)n2c1CCN(Cc1cc3c(cc1Cl)OCO3)CC2`, the activation was inactive: 0.589%.

On to `N#Cc1ccc(CN2CCCC3(CCN(C(=O)c4ccncc4)CC3)C2)cc1`, for which the activation is inactive: -14.6%. Next, `O=C1c2ccc(O)c(O)c2C(=O)c2c(O)ccc(O)c21`: inactive: -0.857%; `NC(=S)NS(=O)(=O)c1ccc(N)cc1`: inactive: -3.42%; `CN(C(=O)C(Cl)Cl)c1ccc(OC(=O)c2ccco2)cc1`: inactive: -3.75%. Next, `NC[C@](O)(CS(=O)(=O)O)c1ccc(Cl)cc1`: inactive: -1.67%; `C[Si](C)(C)O[Si](C)(C)C`: inactive: 6.08%. To `COc1cc(-c2noc(C)c2C#Cc2ccccn2)cc(OC)c1OC` belongs inactive: -22.3%. In the case of `Cn1cccc1C(=O)N1CCC2(CC1)CCN(c1cccc(-c3ccccc3)c1)CC2`, the activation was inactive: 0.0496%.

`COc1ncc2ncc(=O)n(Cc3ccc(F)cc3)c2n1`: the activation was inactive: -11.7%. To `CCOc1cc(OCC)c(C(=O)CCC(=O)O)cc1OCC` belongs inactive: 9.24%; to `CCOC(=O)Nc1ccc2c(c1)N(C(=O)CN(C)C)c1ccccc1CC2`, inactive: -3.7%. Next, `CN(Cc1ccco1)c1nc(-c2ccc3c(c2)OCO3)nc2ccccc12`: inactive: 5.19%; `CCOc1ccc2nc(N3CCCC3C(=O)N3CCC(c4nc5ccccc5o4)CC3)nc(C)c2c1` (stereo unspecified): inactive: 2.5%. To `COc1ccccc1N1CCN(CCCCN2C(=O)c3ccccc3C2=O)CC1` belongs inactive: -24% and inactive: 10.9% and inactive: -68.2%. With `Cc1cnc(CNc2cc(-c3ccc(C(=O)N(C)C)cc3)ncn2)cn1`, the activation was inactive: -0.0716%. To `CC(=O)c1ccc(F)c(-c2cc(C)cc3c2OC(CNC(=O)Cc2ccc4c(c2)OCO4)C3)c1` (stereo unspecified) belongs inactive: 1.14%.

For `CC(C)c1c(C(=O)N(C)CC2CCCN(C)C2)cnn1-c1nccc(-c2cccs2)n1` (stereo unspecified), the activation was inactive: 2.97%. To `Nc1ncnc2[nH]c(=O)[nH]c12` belongs inactive: -10.5%. To `Cc1cccc(C)c1OCC(C)N` (stereo unspecified) belongs inactive: -23.8% and inactive: -8.12% and inactive: -25.3%; to `CCN(Cc1ccncc1)Cc1ccc2c(c1)CN(C(=O)c1ccc(C#CC(C)(C)O)o1)CCO2`, inactive: -8.5%; to `COC(=O)[C@@H]1C2CC3c4[nH]c5cc(OC)ccc5c4CCN3CC2C[C@H](OC(=O)c2cc(OC)c(OC)c(OC)c2)C1OC` (stereo partly specified), inactive: 20.8%. Consider `O=C(/C=C/c1ccc(O)cc1)c1cccs1`, for which the activation was inactive: 4.67%.

Regarding `CC(=O)Oc1c(C)cc(OCC(O)CNC(C)C)c(C)c1C` (stereo unspecified), the activation is inactive: -3.35%. For `CCN(CC)CCCC(C)Nc1cc(/C=C/c2ccccc2Cl)nc2cc(Cl)ccc12` (stereo unspecified), the activation was inactive: 16.5%.

For the molecule `CC(=O)N1CCC2(CC1)CN(Cc1ccccc1)C2`, the activation was inactive: 7.42%. To `COc1ccccc1OCC(O)CO` (stereo unspecified) belongs inactive: 6.25% and inactive: -8%; to `CCCCCc1ccc(-c2cn(Cc3ccc(C)cc3)nn2)cc1`, inactive: -11.6%. `NC[C@@H]1O[C@H](O[C@H]2[C@@H](O)[C@H](O[C@@H]3[C@@H](O)[C@H](N)C[C@H](N)[C@H]3O[C@H]3O[C@H](CO)[C@@H](O)[C@H](O)[C@H]3N)O[C@@H]2CO)[C@H](N)[C@@H](O)[C@@H]1O`: the activation is inactive: 9.73%. Regarding `CN1C(=O)CC(CC(=O)N2CCCCC2CCO)(c2cccc(F)c2)C1=O` (stereo unspecified), the activation is inactive: -14.1%. To `CC[C@]1(O)C[C@H]2CN(CCc3c([nH]c4ccccc34)[C@@](C(=O)OC)(c3cc4c(cc3OC)N(C=O)[C@H]3[C@@](O)(C(=O)OC)[C@H](OC(C)=O)[C@]5(CC)C=CCN6CC[C@]43[C@@H]65)C2)C1` belongs inactive: -3.47%; to `O=c1c(-c2ccc(Cl)cc2)nc2cnc(N3CCOCC3)nc2n1CCc1ccccc1`, inactive: -10.4%; to `COc1cc(C)c2c(c1C=O)Oc1c(c(C)c(O)c3c1C(O)OC3=O)OC2=O` (stereo unspecified), inactive: -10.8% and inactive: -6.81%.
